Measured values reported in publication PMC6212790.
This is one part of the list. At the low end of the ranking the order means little.
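Further: rank score from −0.5 (least bound) to 0.5 (best bound).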

Each sequence was assayed against T1, GST-Rok-C97-191 (UniProt O34857) (assay: protein binding microarray). Settings: Rok is a gene silencer of Bacillus subtilis; high values mean tight binding; most listed sequences are background and not binding sites; double strand, one strand shown.
T1 sequence: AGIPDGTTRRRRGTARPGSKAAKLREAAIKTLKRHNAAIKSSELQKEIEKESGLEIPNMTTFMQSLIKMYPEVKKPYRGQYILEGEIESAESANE
For GAGTTCTA, the binding signal was 0.134 E-score.
Sequence GCTCCTCA has a binding signal of -0.273 E-score.
In the case of CGCCGTAA, the binding signal is reported as -0.103 E-score.
In the case of AGGCTCTG, the binding signal is reported as -0.122 E-score.
CATCGTTA was tested, and the binding signal was 0.0763 E-score.
ATGTGTTG was tested, and the binding signal was 0.106 E-score.
ACGATACA showed a binding signal of 0.117 E-score.
CCATTACA gave a binding signal of 0.0199 E-score.
ATGCTAAT showed a binding signal of 0.158 E-score.
CTGAGAAC gave a binding signal of -0.163 E-score.
In the case of ACATCCCA, the binding signal is reported as -0.132 E-score.
In the case of GTATATAA, the binding signal is reported as 0.285 E-score.
AACCAATC showed a binding signal of 0.22 E-score.
Sequence CGCAACAG has a binding signal of -0.195 E-score.
For GGATGTTA, the binding signal was 0.0716 E-score.
CGCTGGAC was tested, and the binding signal was -0.0953 E-score.
With CCAAACCG the binding signal was 0.00158 E-score.
CACGAGAC was tested, and the binding signal was -0.187 E-score.
In the case of AAGGGTAG, the binding signal is reported as 0.0604 E-score.
With ACGCACCG the binding signal was -0.0486 E-score.
For CCCACGGC, the binding signal was -0.265 E-score.
In the case of AGGTCAGA, the binding signal is reported as -0.177 E-score.
Sequence CAAGGGCC has a binding signal of -0.186 E-score.
Sequence CGCTGTTC has a binding signal of -0.0562 E-score.
Sequence CCGACTGC has a binding signal of -0.201 E-score.
GGCGCGAA gave a binding signal of -0.139 E-score.
With CAAATTTG the binding signal was 0.0571 E-score.
Work on ACTCAACC yielded a binding signal of -0.0589 E-score.
For GGGGATAA, the binding signal was 0.0339 E-score.
GGACCTGA gave a binding signal of -0.221 E-score.
Work on CGCTCAAC yielded a binding signal of -0.071 E-score.
With AGGGAACA the binding signal was -0.135 E-score.
ACTTAGCA gave a binding signal of 0.123 E-score.
In the case of AACGCTTG, the binding signal is reported as -0.182 E-score.
Work on CCGTCTCG yielded a binding signal of -0.252 E-score.
ATCTACGC gave a binding signal of 0.224 E-score.
For CCTGCAGG, the binding signal was -0.213 E-score.
With TCTCGTCA the binding signal was -0.0851 E-score.
ACCATAGC showed a binding signal of -0.0609 E-score.
CCCCGCCA was tested, and the binding signal was -0.367 E-score.
Sequence ACCAATAA has a binding signal of 0.18 E-score.
Work on ACTGACCG yielded a binding signal of 0.269 E-score.
For AATTGACT, the binding signal was 0.167 E-score.
CGGCTAGC gave a binding signal of -0.191 E-score.
With AAACACTC the binding signal was 0.0248 E-score.
AATCCGCA was tested, and the binding signal was -0.0334 E-score.
AAGAATAG showed a binding signal of 0.118 E-score.
In the case of ACGAATCT, the binding signal is reported as 0.143 E-score.
AAGATTAC was tested, and the binding signal was 0.132 E-score.
Work on GGCTGTTA yielded a binding signal of 0.0876 E-score.
TCTGCGAA was tested, and the binding signal was -0.101 E-score.
In the case of AAAATTGG, the binding signal is reported as 0.157 E-score.
In the case of ACACATGT, the binding signal is reported as 0.0743 E-score.
With CGAAGCCG the binding signal was -0.361 E-score.
Work on GCAGAGAA yielded a binding signal of -0.195 E-score.
GCCGTTAA showed a binding signal of -0.0096 E-score.
Work on CAAGTCCG yielded a binding signal of -0.159 E-score.
Work on CGACCATA yielded a binding signal of 0.0423 E-score.
GAAAAAAC was tested, and the binding signal was 0.0645 E-score.
GCCAACGA was tested, and the binding signal was -0.104 E-score.
Work on TAGCCCTA yielded a binding signal of 0.0919 E-score.
GAATTAAA was tested, and the binding signal was 0.168 E-score.
For AGAGCTAT, the binding signal was 0.278 E-score.
CTTAGTTA showed a binding signal of 0.189 E-score.
For AGCTAGCC, the binding signal was 0.0448 E-score.
With AGGGCATA the binding signal was -0.0565 E-score.
Work on AAATTAGA yielded a binding signal of 0.262 E-score.
In the case of GAAGTGGA, the binding signal is reported as -0.00561 E-score.
Work on ATATGGCG yielded a binding signal of -0.0489 E-score.
For AAAACGTC, the binding signal was -0.0674 E-score.
TAGCATAA was tested, and the binding signal was 0.224 E-score.
CTTAATTC gave a binding signal of 0.0837 E-score.
GAATACCC was tested, and the binding signal was -0.0946 E-score.
AATCGTCA showed a binding signal of -0.0288 E-score.
In the case of GTTACTAA, the binding signal is reported as 0.272 E-score.
In the case of GGAGACGA, the binding signal is reported as -0.102 E-score.
CCGGAGAA gave a binding signal of -0.0232 E-score.
GCTGATCA showed a binding signal of 0.0182 E-score.
Sequence ATGCAGAG has a binding signal of -0.0691 E-score.
GACGAACA gave a binding signal of 0.0885 E-score.
In the case of TATCTGGA, the binding signal is reported as 0.0371 E-score.
For AGTGGGTC, the binding signal was 0.0211 E-score.
Work on AAGAGATA yielded a binding signal of 0.282 E-score.
For CGCTGACG, the binding signal was -0.213 E-score.
ACGCTCCG gave a binding signal of -0.0476 E-score.
Work on CATCGAGG yielded a binding signal of 0.00314 E-score.
For AGGGGCCA, the binding signal was -0.201 E-score.
In the case of AACACAAA, the binding signal is reported as 0.135 E-score.
With AAGGCATT the binding signal was -0.0138 E-score.
For GAACATCC, the binding signal was -0.102 E-score.
Work on CCTTCTCG yielded a binding signal of -0.176 E-score.
For GGCGAGAA, the binding signal was 0.0502 E-score.
With ACTTGTAT the binding signal was 0.216 E-score.
CGGCAACC was tested, and the binding signal was -0.339 E-score.
AGCCCCAG was tested, and the binding signal was -0.229 E-score.
GAAGTACA was tested, and the binding signal was 0.237 E-score.
Work on CCTAAGCA yielded a binding signal of -0.113 E-score.
Work on GATCAGTA yielded a binding signal of 0.168 E-score.
Work on CCGTATAA yielded a binding signal of 0.041 E-score.
CTTACTCC gave a binding signal of -0.261 E-score.
In the case of CTAAGTTA, the binding signal is reported as 0.291 E-score.
CGTTGAGC gave a binding signal of 0.142 E-score.
With AATGCTAA the binding signal was 0.19 E-score.
CAACAGTG gave a binding signal of 0.0183 E-score.
For AATTTCGC, the binding signal was 0.151 E-score.
With TAGCACGA the binding signal was 0.153 E-score.
AGGGAACC showed a binding signal of -0.181 E-score.
AGAAGGAA showed a binding signal of -0.0343 E-score.
Work on AAAGATCA yielded a binding signal of -0.0229 E-score.
For CAAGTAGC, the binding signal was -0.0849 E-score.
GACTTTGA gave a binding signal of -0.0997 E-score.
Work on CTTTACGC yielded a binding signal of 0.0406 E-score.
CGCCAAGA was tested, and the binding signal was -0.165 E-score.
Work on CGTGTGAG yielded a binding signal of -0.0536 E-score.
In the case of AATCTCTG, the binding signal is reported as 0.144 E-score.
AAACTTTG showed a binding signal of 0.0736 E-score.
CGTTTTGC gave a binding signal of 0.0551 E-score.
CATCGTAC showed a binding signal of -0.00455 E-score.
In the case of GATTATGA, the binding signal is reported as 0.0489 E-score.
Work on CCCGCACC yielded a binding signal of -0.122 E-score.
With AGTAGTAA the binding signal was 0.404 E-score.
With AAACCCAG the binding signal was 0.143 E-score.
CGACACCG gave a binding signal of -0.204 E-score.
In the case of ATGGGGCG, the binding signal is reported as -0.0966 E-score.
AGACTATG showed a binding signal of 0.121 E-score.
TGCGGACA gave a binding signal of -0.000971 E-score.
In the case of CCCATCCG, the binding signal is reported as -0.267 E-score.
Work on CGGACAAA yielded a binding signal of 0.0138 E-score.
CAAACTCA gave a binding signal of -0.0752 E-score.
ACCGTCAA gave a binding signal of -0.0488 E-score.
TCGGTCCA showed a binding signal of -0.251 E-score.
ATCCGTCG gave a binding signal of -0.0336 E-score.
For GCGTGGAA, the binding signal was -0.0222 E-score.
CGAATGTC showed a binding signal of -0.015 E-score.
CCGATAAC was tested, and the binding signal was 0.207 E-score.
For GAGCGCTC, the binding signal was -0.173 E-score.
In the case of ATGTAGTA, the binding signal is reported as 0.407 E-score.
AGTAACCA was tested, and the binding signal was 0.11 E-score.
With AAGCTGAA the binding signal was -0.00744 E-score.
In the case of CGATGTAC, the binding signal is reported as 0.206 E-score.
Sequence CTAATAGA has a binding signal of 0.252 E-score.
CCTTTGCC showed a binding signal of -0.273 E-score.
Work on ACCAGGTC yielded a binding signal of 0.0158 E-score.
With AGGGCCAA the binding signal was -0.229 E-score.
CTCTAAGA was tested, and the binding signal was -0.196 E-score.
For TAGGTTAA, the binding signal was 0.101 E-score.
CAAGAGTA gave a binding signal of 0.0613 E-score.
Work on CTACGCAA yielded a binding signal of 0.0577 E-score.
Sequence AGTCTGTC has a binding signal of -0.26 E-score.
Sequence CGTGTGTA has a binding signal of -0.0357 E-score.
Sequence AGCGCTTA has a binding signal of 0.00703 E-score.
With GGCCGTCA the binding signal was -0.0566 E-score.
With AACTGGAT the binding signal was 0.115 E-score.
Work on AAGAAATG yielded a binding signal of -0.0471 E-score.
With ACGTAGGA the binding signal was 0.119 E-score.
Work on GAACATTC yielded a binding signal of 0.088 E-score.
With GTTTAGGA the binding signal was -0.133 E-score.
CCCTCCGC gave a binding signal of -0.411 E-score.
For CTACTTTC, the binding signal was 0.275 E-score.
GGATCACA showed a binding signal of -0.0542 E-score.
With CCGGGGCA the binding signal was -0.354 E-score.
Sequence CACTCCGG has a binding signal of -0.137 E-score.
Sequence GAGTGATA has a binding signal of 0.182 E-score.
Sequence AGCAGTTG has a binding signal of 0.19 E-score.
Sequence AACCCTTG has a binding signal of -0.228 E-score.
Sequence TACCCAGA has a binding signal of 0.0275 E-score.
With ACCAACCT the binding signal was 0.0575 E-score.
CTTACTAA showed a binding signal of 0.203 E-score.
CAAAGAAC showed a binding signal of 0.232 E-score.
AAAGAGTA showed a binding signal of 0.0872 E-score.
ACCTTAGT was tested, and the binding signal was -0.0308 E-score.
CGATGAAC gave a binding signal of -0.153 E-score.
